# Test results taken from PubChem BioAssay (NCATS).
# The shares of active, inactive and inconclusive entries below differ from those in the screen. The call rests on the fitted dose curve; in most records, active means well fitted inhibition curve with a large enough effect; inconclusive means small, poorly fitted or top-dose-only effect; inactive means no such curve, though single readings can be large or run the other way. No potency is given beside an inconclusive call; the fits are too rough.
# How the values were obtained:
# [1] = target: Furin (Homo sapiens) (UniProt P09958); test: Furin counterscreen qHTS for Zika virus inhibitors (AID 1347149); settings: furin enzymatic counterscreen, fluorogenic substrate; series mostly up to 114 µM; further: nearly all actives have a fitted effect of over 70% in size
# Procedure, shortened: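 Fluorogenic cleavage of BOC-RVRR-AMC (2 microM final, Km ~15 µM) was monitored (ex 340, em 450 nm) at 37C after 15 min RT preincubation of 5 nM furin with compounds in HEPES pH 7.0 buffer with CaCl2 and Triton X-100. Percent inhibition was fitted to a 4-parameter Hill curve.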
# [2] = Tertiary RLuc qRT-PCR qHTS assay for Zika virus inhibitors (AID 1347169); further: nearly all actives have a fitted effect of over 55% in size
# Procedure, shortened: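 Vero cells (1,000/well) infected with recombinant ZIKV-RLuc (Cambodian) at MOI 1-2 after compound addition, 48-72 hrs at 37 degrees C. Live-cell Renilla luciferase substrate added; luminescence read after 1-1.5 hrs.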
# Potency means the concentration at half of the fitted maximal effect; tags describe the fitted curve by direction and shape.
# Chain of UniProt P09958 (P09958 whole entry, looked up): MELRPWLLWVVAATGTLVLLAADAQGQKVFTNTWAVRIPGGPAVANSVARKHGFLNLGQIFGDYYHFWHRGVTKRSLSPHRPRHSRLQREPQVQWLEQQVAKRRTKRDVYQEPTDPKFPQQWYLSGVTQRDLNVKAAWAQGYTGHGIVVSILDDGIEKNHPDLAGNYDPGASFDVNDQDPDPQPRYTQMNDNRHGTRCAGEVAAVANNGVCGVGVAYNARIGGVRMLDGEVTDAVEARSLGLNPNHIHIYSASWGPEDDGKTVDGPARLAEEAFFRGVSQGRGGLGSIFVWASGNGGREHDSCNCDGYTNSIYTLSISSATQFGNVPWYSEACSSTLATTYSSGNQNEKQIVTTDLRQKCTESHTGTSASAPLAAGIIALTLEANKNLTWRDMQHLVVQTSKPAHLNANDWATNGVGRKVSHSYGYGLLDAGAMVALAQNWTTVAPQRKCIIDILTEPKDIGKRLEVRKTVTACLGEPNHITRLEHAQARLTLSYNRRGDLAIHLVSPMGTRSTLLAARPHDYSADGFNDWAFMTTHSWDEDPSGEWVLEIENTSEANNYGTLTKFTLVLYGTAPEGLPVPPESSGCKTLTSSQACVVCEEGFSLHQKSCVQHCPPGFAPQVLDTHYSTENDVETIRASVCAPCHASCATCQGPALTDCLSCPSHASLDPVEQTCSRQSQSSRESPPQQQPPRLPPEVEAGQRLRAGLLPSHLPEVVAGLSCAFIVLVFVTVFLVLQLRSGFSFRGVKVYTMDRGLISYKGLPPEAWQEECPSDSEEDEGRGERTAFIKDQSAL
compound,measurement,setting,value
O=C(Nc1ccc(C(=O)OCc2cc(=O)n3nc(C4CC4)sc3n2)cc1)c1cccc(F)c1,Potency,[1],"inconclusive [inhibitor, partial curve, poor fit]"
same,Potency,[2],"inconclusive [inhibitor, partial curve, poor fit]"
